Measurements: PubChem BioAssay AID488969 (Vanderbilt High Throughput Screening Facility, 2010)
Whole data set: some 110,000 compounds, median “z-score” near -0.1, cut for the highest 2% near 2. This is one part of the list. Activity calls are given as the source filed them.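 How the source made its calls: active means z-score in the third read window above 3 or below -3; inactive means the rest.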

Target: Metabotropic glutamate receptor 8 (Rattus norvegicus) (UniProt P70579)
Experiment: rat mGluR8 modulators via GIRK flux, primary screen, cell-based, thallium flux, HTS (AID 488969)
Details: HEK293 rat mGluR8, GIRK (G protein-gated inwardly rectifying potassium channel) thallium flux, FluoZin2; at 10 µM; stronger effect = higher value; submaximal glutamate (EC20) added with thallium

Chain of UniProt P70579 (P70579 whole entry, looked up): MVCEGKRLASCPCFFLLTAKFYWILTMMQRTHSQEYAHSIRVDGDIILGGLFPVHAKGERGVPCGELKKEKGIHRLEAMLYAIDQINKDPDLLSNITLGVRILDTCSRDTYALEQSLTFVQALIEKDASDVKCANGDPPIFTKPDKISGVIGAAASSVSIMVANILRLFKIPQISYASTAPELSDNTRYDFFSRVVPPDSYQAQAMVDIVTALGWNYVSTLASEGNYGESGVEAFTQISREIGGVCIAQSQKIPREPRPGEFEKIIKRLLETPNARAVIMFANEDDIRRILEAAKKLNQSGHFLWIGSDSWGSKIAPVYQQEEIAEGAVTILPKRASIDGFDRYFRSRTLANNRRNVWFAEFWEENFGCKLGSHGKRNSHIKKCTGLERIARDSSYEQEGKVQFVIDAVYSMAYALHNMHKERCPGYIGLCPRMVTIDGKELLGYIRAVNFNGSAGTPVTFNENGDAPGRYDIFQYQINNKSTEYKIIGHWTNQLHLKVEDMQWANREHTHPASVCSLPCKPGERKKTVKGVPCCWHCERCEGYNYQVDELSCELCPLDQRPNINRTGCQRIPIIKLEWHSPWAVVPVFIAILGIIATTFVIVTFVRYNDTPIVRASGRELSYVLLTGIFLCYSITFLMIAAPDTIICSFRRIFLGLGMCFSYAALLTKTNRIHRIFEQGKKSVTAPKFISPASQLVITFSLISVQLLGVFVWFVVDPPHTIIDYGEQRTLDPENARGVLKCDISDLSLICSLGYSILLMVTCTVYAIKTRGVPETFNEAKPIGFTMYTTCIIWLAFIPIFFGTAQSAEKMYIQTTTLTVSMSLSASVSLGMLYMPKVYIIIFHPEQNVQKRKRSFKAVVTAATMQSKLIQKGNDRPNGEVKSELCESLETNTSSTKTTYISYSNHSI

Row | Structure (SMILES) | z-score
1 | COCC(C)NC(C(=O)Nc1ccc(C)c(Cl)c1)c1ccccc1 (stereo unspecified) | -0.19
2 | CC1(C)CC2CC(C)(CN2C(=O)NC(=O)c2ccccc2)C1 (stereo unspecified) | -0.259
3 | CCOC(=O)c1ccc(NC(=O)c2ccc(CN3CCOCC3)cc2)cc1 | 0.0575
4 | Fc1ccc(Nc2nc(Oc3ccccc3F)nc(N3CCCC3)n2)cc1 | -0.254
5 | CCOC(=O)c1c(C)cc(=O)oc1C | 0.0603
6 | CN(CC(=O)Nn1cnnc1)S(=O)(=O)c1ccc(Br)cc1 | active: 4.35
7 | CC(=Nc1ccccc1)C1=C(O)CSC1=O | -0.287
8 | CCOc1ccccc1CNc1nc2nc3c(c(=O)n2[nH]1)CCC3 | -1.1
9 | O=C1Nc2cc(Cl)c(Cl)cc2N(O)N1c1cccc(Cl)c1 | -0.178
10 | O=C(COC(=O)C1CCN(S(=O)(=O)c2cccc3cccnc23)CC1)c1ccc(F)cc1 | -0.302
11 | CN(C(=O)CN1CCC(NC(=O)C2CCCCC2)CC1)C1CCCCC1 | -0.127
12 | CC(=O)C1=C(O)C(=O)N(c2ccc(Br)cn2)C1c1ccccc1F (stereo unspecified) | -0.397
13 | C=CCOc1ccccc1CN1CCSCC1 | 0.199
14 | O=c1ccc2cc(S(=O)(=O)N3CCN(c4ccccc4)CC3)ccc2o1 | -0.349
15 | CCc1nnc(NC2=NCCC2)s1 | -1.03
16 | CC12CC(NC(=O)N1CCc1ccccc1)c1ccccc1O2 (stereo unspecified) | -0.0397
17 | Fc1ccccc1N1CC(c2ccccc2)C(c2cccs2)=N1 (stereo unspecified) | 0.706
18 | Oc1ccc(/C=N/Nc2ncc(Br)cn2)c(O)c1 | -0.00188
19 | c1ccc(Nc2cccc(Nc3ccccc3)n2)cc1 | 0.399
20 | O=C(COc1ccccc1Cl)Nc1nc(-c2cccs2)cs1 | 0.4
21 | O=C(Nc1cccc(S(=O)(=O)Nc2ccc(Cl)cc2)c1)c1ccc2c(c1)OCCO2 | -0.236
22 | CCCCN(CC)Cc1ccc(CNC(=O)Nc2ccc(OCC)cc2)o1 | -0.0885
23 | O=C(NC1CCCCC1)C1CCC(CNS(=O)(=O)c2cccc3nsnc23)CC1 (stereo unspecified) | -0.329

Row | Structure (SMILES) | z-score
24 | Nc1nnc(COc2ccc(Br)cc2Br)s1 | 0.953
25 | CCOc1ccc(Cn2nnc(C(=O)NCc3ccc(OC)cc3)c2N)cc1 | -1.72
26 | COc1ccc(C(=O)NNC2=NC(C)(C)Cc3cc(C)c(C)cc32)cc1 | -0.742
27 | Cc1ccccc1NS(=O)(=O)c1ccc(OCCNS(C)(=O)=O)cc1 | -0.0428
28 | CCOC(=O)c1ccccc1NC(=O)CN1C(=O)c2ccccc2S1(=O)=O | -0.169
29 | COCCCNC(=O)Cn1nc(-c2ccccc2OC)ccc1=O | -0.0761
30 | Cc1ccc(S(=O)(=O)N2CCN(C(=O)N(c3ccccc3)c3ccccc3)CC2)cc1 | -0.559
31 | COc1cc2c(cc1NC(=O)COC(=O)C(CCSC)NC(=O)c1ccccc1Cl)oc1ccccc12 (stereo unspecified) | -0.0883
32 | Cc1ccccc1OCc1nnc2n1CC(C)S2 (stereo unspecified) | -0.449
33 | O=C(NCCN1CCCC1)c1ccc(Cn2c(=S)[nH]c3cc4c(cc3c2=O)OCO4)cc1 | -0.289
34 | Nn1c(CSc2nc3ccccc3o2)nnc1CSc1nc2ccccc2o1 | -0.0302
35 | CCN(CC)c1ccc(NC(=O)CN2CCN(c3ccccc3F)CC2)cc1 | -0.441
36 | CSCCOC(=O)C1=C(C)Nc2ccc(C)cc2S1 | 0.201
37 | CSc1nc2n(n1)C(c1cccc(F)c1)C(C(=O)Nc1ccc(C)cc1C)=C(C)N2 (stereo unspecified) | -0.125
38 | CCCCNC(=S)NNC(=O)c1cc(C)on1 | -0.144
39 | CCc1c(C(C)O)oc2ccc3c(C)cc(=O)oc3c12 (stereo unspecified) | -0.164
40 | O=C(NCc1ccccc1)c1cccc(COc2ccccc2Cl)c1 | -0.297
41 | C=CCNC(=O)c1onc(CSc2cc(C)ccc2C)c1C(=O)O | 0.136
42 | Cc1ccc(-c2ccc(CCC(=O)O)n2NC(=O)c2cccs2)cc1 | -0.399
43 | COc1ccc(C(C(=O)NC2CCCCC2)N(C(=O)CCl)c2ccc(OC)cc2)cc1 (stereo unspecified) | -0.0726
44 | Cc1cc(C)n(-c2c(F)c(F)c(COC(=O)c3ccccc3)c(F)c2F)n1 | -0.136
45 | COc1ccc(C(CC(=O)O)NC(=O)C2CCCCC2)cc1 (stereo unspecified) | 1.24
46 | CCCCOc1ccc(NC(=O)CSCC(=O)OCC)cc1 | -0.41

Row | Structure (SMILES) | z-score
47 | CC1(C)Cc2cccc(OCC(=O)NC3CC3)c2O1 | -0.0613
48 | COC(=O)Nc1nnc(CCc2ccccc2)s1 | 1.27
49 | CCOC(=O)c1nnn(CC(=O)N2N=C(c3cccc4ccccc34)CC2c2ccccc2)c1C(=O)OCC (stereo unspecified) | -0.0979
50 | CC12CC(NC(=O)N1c1cccc(C(=O)Nc3ncn[nH]3)c1)c1ccccc1O2 (stereo unspecified) | -0.175
51 | CCN(CC)CP(=O)(c1ccccc1)c1ccccc1 | 0.28
52 | COc1ccc(-c2cc(C(F)(F)F)nc(N3CCN(C)CC3)n2)cc1 | 0.816
53 | Cc1ccc(S(=O)(=O)NC2CCCc3ccccc32)cc1C (stereo unspecified) | 0.203
54 | CC1CCc2cc(F)ccc2N1C(=O)c1cc2nc(-c3ccco3)cc(C(F)(F)F)n2n1 (stereo unspecified) | -0.816
55 | CCCC1=Nc2cc(C(=O)NCc3ccco3)ccc2Sc2ccccc21 | -0.285
56 | O=C(NCC1CCCO1)c1ccc(NC(=O)C2C3C=CC(C3)C2C(=O)O)cc1 (stereo unspecified) | -0.188
57 | CC(=O)c1cnc2c(-c3ccc(Cl)cc3)c(C)nn2c1C | -0.623
58 | O=C(c1ccc(=O)n(Cc2ccc(Cl)c(Cl)c2)c1)N1CCOCC1 | -0.194
59 | N#Cc1nc(Cc2ccccc2)oc1N1CCN(c2cccc(Cl)c2)CC1 | 0.287
60 | COc1ccc(C(=O)NC(=S)NCc2ccc(-c3nc4ccccc4o3)cc2)cc1OC | -0.0448
61 | CC(CCc1ccccc1)NC(=O)C1CCN(S(=O)(=O)c2cnc[nH]2)CC1 (stereo unspecified) | 0.0515
62 | Cc1nc(N2CCOCC2)nc2c1CCCC2 | -0.26
63 | O=C(O)Cn1nc(-c2ccc(F)cc2)oc1=O | -1.05
64 | CCC(C)(C)NC(=O)C(c1ccc(OC)cc1)N(Cc1cccs1)C(=O)CCC(=O)Nc1cc(C)on1 (stereo unspecified) | -0.717
65 | NC(=O)C1CCN(C(c2ccccc2Cl)c2nnnn2CC2CCCO2)CC1 (stereo unspecified) | 1.21
66 | c1csc(-c2nn3c(Cn4cnc5ccccc54)nnc3s2)c1 | -0.397
67 | O=C(C(=O)N1CCc2ccccc2C1)c1cn(CC(=O)N2CCOCC2)c2ccccc12 | 0.736
68 | Nc1nc2c(s1)CCc1c-2cnn1-c1ccccc1 | -0.981
69 | CCOC(=O)c1cccc(NC(=O)C2CCCN2S(=O)(=O)c2cccc3cccnc23)c1 (stereo unspecified) | -0.226

Row | Structure (SMILES) | z-score
70 | CN(C)S(=O)(=O)c1ccc(NC(=O)c2ccc(Br)o2)cc1 | 0.638
71 | CCC(c1nnc(SCC(=O)Nc2nnc(-c3ccccc3)o2)n1Cc1ccccc1)N(C)C (stereo unspecified) | -0.274
72 | O=[N+]([O-])c1ccc(NNC(=S)Nc2ccccc2)cc1 | 0.785
73 | COc1cc2nc(NC(=O)c3ccccc3)[nH]c(=O)c2cc1OC | -0.186
74 | Cc1csc(NC(=O)c2c(O)c3c(n(CC(C)C)c2=O)CCCC3)n1 | -0.248
75 | CCCC(=O)N1CCN(c2ccc(NC(=O)C(C)(C)C)cc2)CC1 | -0.0238
76 | CCCCOc1ncnc2c1[nH]c1ccccc12 | -2.09
77 | O=C(c1ccc(=O)n(Cc2ccccc2)n1)N1CCN(C/C=C/c2ccccc2)CC1 | -0.359
78 | COc1ccccc1N/C(=N/S(=O)(=O)c1ccc(Cl)cc1)c1ccccc1 | -0.274
79 | COc1ccc(-c2cnc(SCC(=O)Nc3cc(C)on3)n2Cc2ccco2)cc1 | -0.553
80 | Cc1c(C(=O)NC(C)c2ccncc2)oc2ccccc12 (stereo unspecified) | -0.233
81 | CC1=C(C(=O)Nc2ccccc2)C(c2ccc(O)cc2)N2C(=O)CSC2=N1 (stereo unspecified) | 0.0242
82 | Cc1ccc(C(=O)NCCCNc2ccc(C(F)(F)F)cc2[N+](=O)[O-])cc1 | -0.325
83 | Cc1cccc(/C=N/c2sc3c(c2C(=O)OC(C)(C)C)CCN(C)C3)c1O | 0.0245
84 | CCN(CC(=O)NC1CCS(=O)(=O)C1)c1nc(-c2cccnc2)nc2ccccc12 (stereo unspecified) | -0.646
85 | CSc1nnc(C)c(=O)n1COC(=O)COc1ccccc1 | -0.0718
86 | CCn1ncc(Br)c1C(=O)Nc1ccc(C(=O)OC(C)C)cc1 | 0.0146
87 | CCOc1ccc2nc(SCC(=O)NC(=O)NCc3ccco3)sc2c1 | 0.447
88 | CC(C)NC(=O)CSc1ccccc1C(=O)NCc1ccc2c(c1)OCO2 | -0.212
89 | CS(=O)(=O)N(CC(=O)N1CCCCC1)c1ccc(Cl)c(C(F)(F)F)c1 | -0.304
90 | COC(=O)COC(=O)c1ccccc1NC(=O)c1ccccc1 | -0.448
91 | COc1ccc(NC(=O)CSc2nnc(Cc3cccn3C)n2-c2ccc(F)cc2)cc1 | -0.282
92 | O=C(CSc1nnc(CNC(=O)C23CC4CC(CC(C4)C2)C3)n1-c1ccccc1)Nc1ccc(F)cc1 | -1.07

Row | Structure (SMILES) | z-score
93 | N#C/C(=C\c1cc(Cl)cc(Cl)c1O)C(=O)NC1CCCCC1 | -0.277
94 | COc1ccccc1NC(=O)CSc1ncnc2c1oc1ccccc12 | 0.0834
95 | CCN(c1ccccc1)S(=O)(=O)c1ccc(OCc2c(C)noc2C)cc1 | -0.275
96 | CN1CCN(CCCNC(=O)Cn2ncc3c4ccccc4n(C)c3c2=O)CC1 | 0.0091
97 | O=c1c2oc3ccccc3c2[nH]c(=S)n1-c1ccccc1 | 0.645
98 | COc1ccc2c(c1)CC/C(=C\c1ccc(OC)c(Cn3cccn3)c1)C2=O | -0.628
99 | COc1ccc(NC(=O)/C(C#N)=C/c2c(C)nn(-c3ccc(F)cc3)c2Cl)cc1Cl | -0.53
100 | CCOc1ncccc1C(=O)OCC(=O)NCCc1ccccc1 | 0.0466
101 | COc1ccc(S(=O)(=O)N2CCC(C(=O)N3CCc4ccccc4C3)CC2)cc1 | -0.209
102 | Cc1ccc(-c2csc3nnc(SCC(=O)NCc4ccco4)n23)cc1 | 1.78
103 | Cc1cccc(CSc2cccc3cccnc23)c1 | active: 8.5
104 | Cc1nc(-c2ccccc2)sc1C(=O)/C=C/c1ccccc1 | 0.327
105 | CCCc1cc2c(=O)c(-c3ccc4c(c3)OCCO4)c(C)oc2cc1OS(C)(=O)=O | 0.121
106 | COc1ccc(NC(=O)c2cccnc2Nc2ccc(OC)cc2)cc1 | 0.757
107 | Cc1sc2ncnc(NCc3cccs3)c2c1C | -0.314
108 | COc1ccc(OC)c2sc(N3CCCCC3)nc12 | 0.0115
109 | Clc1ccc(-c2csc(N/N=C/c3cccnc3)n2)c(Cl)c1 | -0.14
110 | O=C(Nc1cccnc1)c1cccc(NC(=O)c2ccco2)c1 | -0.105
111 | Cc1c(NC(=O)C(C)Sc2nnc(-c3ccccc3)o2)c(=O)n(-c2ccccc2)n1C (stereo unspecified) | -0.308
